Measurements from PubChem BioAssay AID686978 (National Center for Advancing Translational Sciences (NCATS), 2013).
Screen size: about 420,000 compounds; about 64,000 (15%) were called active. This list was built around the results that the source calls inconclusive (neither active nor inactive); the mix of calls is not that of the screen. Calls come from the whole dose curve; as a rule, active = well fitted inhibition curve with a large enough effect; inconclusive = small, poorly fitted or top-dose-only effect; inactive = flat fitted curve, though single readings scatter. No potency is given beside an inconclusive call; the fits are too rough.

assay: qHTS for Inhibitors of human tyrosyl-DNA phosphodiesterase 1 (TDP1): qHTS in cells in absence of CPT; conditions: DT40 Tdp1-/- hTDP1 cells, no CPT, ATP luminescence, 48 h; activity change, negative = growth inhibition: at 46.2 µM (top of the series) unless noted; note: nearly all actives have a fitted effect of over 55% in size
Outline: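 A cellular qHTS used chicken DT40 cells lacking endogenous Tdp1 but carrying stably transfected human TDP1. Compounds were applied without camptothecin, and cell growth kinetics were judged by ATP-dependent luminescence after ≥48 hr.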
% is set by controls: 0 for no effect and ±100 for the full control effect; potency is the fitted concentration of half-maximal effect; tags give direction and shape of the fitted curve.

Row | Structure (SMILES) | activity change, negative = growth inhibition | Potency
1 | COCCNS(=O)(=O)c1cccn1-c1ncc(C(F)(F)F)cc1Cl | inconclusive: -31.8% [inhibitor] | 
2 | COc1cccc(N2C(N)=NC(N)=NC2(C)C)c1 |  | active: 1.03 µM
3 | CCCS(=O)(=O)c1ncc(Cl)c(C(=O)Nc2c(C(=O)Nc3ccccc3)oc3ccccc23)n1 |  | active: 2.59 µM
4 | O=C(NCCCCCCCCCNC(=O)C(F)(F)F)C(F)(F)F |  | inconclusive [inhibitor, single point]
5 | COc1ccc(C2c3cc4c(cc3OC(NNC(N)=O)C2C)OCO4)cc1 (centres undefined) |  | inconclusive [inhibitor, single point]
6 | O=C(Nc1cnn(Cc2ccc(F)cc2)c1)c1cc(-c2cccs2)on1 |  | inconclusive [inhibitor, single point]
7 | CC1(c2nnnn2-c2ccc3c(c2)OCCO3)CCC(=O)N1CCCn1ccnc1 (centres undefined) | inactive: -26% | 
8 | CC1CN(C(=O)c2cnn3c(C(F)F)cc(-c4ccccc4)nc23)CC(C)O1 (centres undefined) | inconclusive: -34.4% [inhibitor] | 
9 | O=S(=O)(Nc1ccccc1N1CCCC1)c1ccccc1C(F)(F)F |  | active: 20.6 µM
10 | CC(C)CC(=O)c1c(O)c(C=O)c(O)c2c1O[C@@]1(C)[C@@H](C2)C[C@H]2C[C@@H]1C2(C)C | inactive: -0.503% | 
11 | COc1ccc(-c2noc(CN(C)C(=O)CCCN3C(=O)[C@H]4CC=CC[C@H]4C3=O)n2)cc1 |  | inconclusive [inhibitor, single point]
12 | Cc1ccc(C2(c3ccc(C)cc3)CC2C(=O)NC(C)C)cc1 (centres undefined) |  | inconclusive [inhibitor, partial curve]
13 | O=C1CN(C(=O)CSc2nc3ccccc3c(=O)n2Cc2ccc(F)cc2)c2ccccc2N1 |  | inconclusive [inhibitor, partial curve, poor fit]
14 | COc1ccc(-c2c(C)nn3c(C(F)(F)F)cc(-c4ccccc4)nc23)cc1OC |  | inconclusive [inhibitor, single point]
15 | CCOC(=O)c1ccc(/C=C2\c3ccccc3C(=O)N2c2ccccc2)cc1F |  | inconclusive [inhibitor, single point]
16 | Cc1ccc(NC(=O)c2c(C)oc3c2C2=NCCN2C=N3)cc1F |  | inconclusive [inhibitor, full curve, poor fit]
17 | CCn1c(SCC(=O)c2ccc(Cl)s2)nnc1-c1cccs1 | inconclusive: -34.5% [inhibitor] | 
18 | CCCN(C(=O)C1CCCN(c2ncnc3c2nc2n3CCCCC2)C1)c1ccc(F)cc1 (centres undefined) |  | active: 20.6 µM
19 | CC(=O)NC(=S)Nc1sc2c(c1C#N)CCCCC2 |  | inconclusive [inhibitor, single point]
20 | COc1ccc(CNc2nc3c(-c4cccc(F)c4)nnn3c3ccccc23)cc1 |  | inconclusive [inhibitor, single point]
21 | CN(CC(=O)NCc1ccc(F)cc1)S(=O)(=O)c1ccc2[nH]c3c(c2c1)CCCC3 |  | active: 18.4 µM
22 | COc1ccc(N(Cc2ccccc2)N=O)cc1 | inactive: -23.1% | 
23 | Cc1cc(C)n(-c2cc(N3CCN(C(=O)c4cccc(Br)c4)CC3)ccc2[N+](=O)[O-])n1 |  | active: 20.6 µM

Row | Structure (SMILES) | activity change, negative = growth inhibition | Potency
24 | COC(=O)c1cccc(NC(=O)c2cc3ccccc3o2)c1 |  | inconclusive [inhibitor, single point]
25 | O=C(CCOc1ccccc1)Nc1nnc(-c2ccc3c(c2)OCCO3)o1 |  | inconclusive [inhibitor, partial curve]
26 | CCOC(=O)CSC1=C(C#N)C(=O)NC(c2ccc(OC)cc2)S1 (centres undefined) |  | active: 14.6 µM
27 | CCOC(=O)Cn1nc(C)c(NC(=O)COc2ccc([N+](=O)[O-])c(C)c2)c1C |  | inconclusive [inhibitor, partial curve]
28 | CC1CC(OCC(O)CN2CCN(Cc3ccccc3)CC2)CC(C)(C)C1 (centres undefined) |  | inconclusive [inhibitor, single point]
29 | C=CCn1c(=NC(=O)c2cccs2)sc2cccc(OC)c21 |  | active: 16.4 µM
30 | CCOC(=O)C1CCN(S(=O)(=O)c2cccc(-c3cn4ccccc4n3)c2)CC1 |  | inconclusive [inhibitor, partial curve]
31 | COc1ccc(-c2ccc(-c3noc(C(C)C)n3)c(OC)n2)cc1 |  | inconclusive [inhibitor, single point]
32 | Cc1cc(C(=O)N2CCN(c3ncccn3)CC2)sc1-c1ccccc1 |  | inconclusive [inhibitor, single point]
33 | CCn1cc(S(=O)(=O)c2ccc(C)cc2)c(=O)c2cc(OC)ccc21 | inactive: 16.1% | 
34 | COCCCN1C(=O)c2ccc(C(=O)Nc3ccc(C)cc3C)cc2C1=O | inactive: -10.1% | 
35 | NCC(O)c1ccc(O)c(O)c1 (centres undefined) | inactive: 11.5% | 
36 | FC(F)(F)COc1nc(OCC(F)(F)F)nc(N2CCN(c3ccccc3)CC2)n1 |  | inconclusive [inhibitor, single point]
37 | CCOc1ccc(-n2c(C)nc3cc(C(=O)NCc4ccco4)ccc32)cc1 |  | inconclusive [inhibitor, single point]
38 | CCN(CC)S(=O)(=O)c1cccc(-c2nnc(SCCCC(=O)c3ccc(F)cc3)o2)c1 |  | inconclusive [inhibitor, single point]
39 | CCN(C(=O)CSc1nnc2c3ccccc3n(CC)c2n1)C1CCS(=O)(=O)C1 (centres undefined) |  | inconclusive [inhibitor, single point]
40 | Cc1ccc(N2CN(Cc3ccco3)CNC2=S)c(C)c1 | inactive: 2.42% | 
41 | COc1ccc(OC)c(NC(=O)c2[nH]c(C)c(C(C)=O)c2C)c1 |  | inconclusive [inhibitor, partial curve, poor fit]
42 | COc1ccccc1N(CC(=O)NC1CCCC1)C(=O)CCC(=O)Nc1ccccn1 | inactive: 0.976% | 
43 | COc1ccc(OC)c(-n2c(N)c(C(=O)NCC3CCCO3)c3nc4ccccc4nc32)c1 (centres undefined) |  | inconclusive [inhibitor, single point]
44 | C[C@H](CO)N1C[C@H](C)[C@@H](CN(C)S(=O)(=O)c2ccc(F)cc2)Oc2ccc(NC(=O)CCC(F)(F)F)cc2C1=O | inactive: -26.2% | 
45 | O=C(Nc1cccnc1)c1cc(-c2ccc(Cl)cc2)on1 |  | inactive
46 | O=C(c1ccc2c(c1)N(Cc1cccc(F)c1)C(=O)c1ccccc1S2)N1CCC2(CC1)OCCO2 |  | inconclusive [inhibitor, single point]

Row | Structure (SMILES) | activity change, negative = growth inhibition | Potency
47 | Cc1ccc2nc(C)c(C(=O)N/N=C/c3ccccc3[N+](=O)[O-])cc2c1 |  | inconclusive [inhibitor, partial curve]
48 | CCCNC(=O)/C=C/c1ccc(C(C)C)cc1 |  | inconclusive [inhibitor, single point]
49 | Cc1ccc(Cc2cnc(NC(=O)c3ccco3)s2)cc1 |  | inconclusive [inhibitor, partial curve]
50 | CCCCCCn1c(=O)n2n(c1=O)C[C@]1(OC(=O)NCc3ccc(OC)c(OC)c3)CN(S(=O)(=O)c3ccc(C)cc3)C[C@]1(O)C2 |  | active: 20.6 µM
51 | CSCCC(NC(=O)c1ccco1)C(=O)N1CCN(Cc2ccccc2)CC1 (centres undefined) | inactive: -18.4% | 
52 | CCCCCOc1ccc(CSc2n[nH]c(C)n2)cc1 |  | inconclusive [inhibitor, partial curve, poor fit]
53 | CCOC(=O)[C@]12CCC=C1N(CCC1=CCCCC1)C(=O)[C@H](CC(=O)NCC1CCCCC1)C2 |  | inconclusive [inhibitor, single point]
54 | O=C(CNCC1CCCCC1)Nc1ccccc1N1CCCCC1 |  | inconclusive [inhibitor, single point]
55 | CCN(Cc1cc2cc(C)ccc2[nH]c1=O)C(=O)c1cccc([N+](=O)[O-])c1 | inactive: -17.2% | 
56 | CS(=O)(=O)Nc1ccc([N+](=O)[O-])cc1Oc1ccccc1 |  | inconclusive [inhibitor, single point]
57 | COc1cc(CC(=O)Nc2ncc(C)s2)cc(OC)c1OC |  | inconclusive [inhibitor, single point]
58 | COc1ccc(C)cc1NS(=O)(=O)c1ccc2c(c1)NC(=O)C(C)S2 (centres undefined) |  | inconclusive [inhibitor, single point]
59 | CCOC(=O)C1=C(C)N(c2ccc(OC)cc2)C(=O)/C1=C\c1ccc(O)c(OCC)c1 |  | inconclusive [inhibitor, partial curve, poor fit]
60 | COc1ccc([C@H]2CC(=O)C=C(c3ccc(-c4ccccc4)c(F)c3)C2)cc1OC |  | inconclusive [inhibitor, single point]
61 | Cc1ccccc1N1C(=O)C2ON(c3ccccc3)C(c3ccncc3)C2C1=O (centres undefined) | inactive: -8.98% | 
62 | O=C(NCc1ccc(F)cc1)N1CCc2ccccc2C1 | inconclusive: -30.4% [inhibitor] | 
63 | CCOc1ccc(S(=O)(=O)NC2=NCCCCC2)cc1 |  | inconclusive [inhibitor, single point]
64 | COc1cc(C)nc(-n2nc(C)cc2OC)n1 |  | inactive
65 | Cc1ccc2nc(-c3cccc(NC(=O)c4ccc5c(c4)OCCO5)c3)oc2c1 |  | inconclusive [inhibitor, single point]
66 | CCn1c(CNC(=O)C23CC4CC(CC(C4)C2)C3)nnc1SC | inactive: 1.1% | 
67 | Cc1ccc(CNC(=O)CN2C(=O)NC3(CC(C)CC(C)(C)C3)C2=O)cc1 (centres undefined) | inactive: 8.94% | 
68 | CCOC(=O)c1c(NC(=O)c2ccco2)sc2c1CCCC2 |  | inconclusive [inhibitor, single point]
69 | O=C(O)c1cccc(NC(=S)NC(=O)c2ccc(-c3ccc(Cl)cc3)o2)c1 | inactive: 1.05% | 
